# According to the supplement of paper PMC8728848:
# This is one part of the list.
# B1: Clone730PsrP (Streptococcus pneumoniae) (protein)
# chain: MDHHHHHHHHHHASENLYFQGAMVVGSQTAAATEATAKKVEEDRKKPASDYVASVTNVNLQSYAKRRKRSVDSIEQLLASIKNAAVFSGNTIVNGAPAINASLNIAKSETKVYTGEGVDSVYRVPIYYKLKVTNDGSKLTFTYTVTYVNPKTNDLGNISSMRPGYSIYNSGTSTQTMLTLGSDLGKPSGVKNYITDKNGRQVLSYNTSTMTTQGSGYTWGNGAQMNGFFAKKGYGLTSSWTVPITGTDTSFTFTPYAARTDRIGINYFNGGGKVVESSTT
# Experiments:
# Test in all cases: glycan array binding signal (z-score within array); higher = stronger binding
# Settings in all cases: glycan notation: IUPAC condensed, linker removed
# [1] = biological target: GlcNAc(b1-4)GlcNAc(b1-4)GlcNAc(b1-4)GlcNAc(b1-4)GlcNAc(b1-4)GlcNAc
# Method in brief: (§1)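 Arrays were curated from the Consortium for Functional Glycomics database, 3228 in total, and kept only where the protein sequence was available. Binding is expressed as a within-array Z-score. This score was averaged across arrays of the same protein sequence at different concentrations or buffers and across linkers, and negative values can be read as non-binding.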
# [2] = biological target: GlcNAc(b1-4)[GlcNAc(b1-6)]GalNAc
# Method in brief: as §1
# [3] = biological target: GlcNAc(b1-6)Gal(b1-4)GlcNAc
# Method in brief: as §1
# GlcNAc(b1-6)GalNAc = biological target: GlcNAc(b1-6)GalNAc
# Method in brief: as §1
# [4] = biological target: GlcNAc6S(b1-3)Gal(b1-4)GlcNAc
# Method in brief: as §1
# Kdn(a2-3)Gal(b1-3)GalNAc = biological target: Kdn(a2-3)Gal(b1-3)GalNAc
# Method in brief: as §1
# Kdn(a2-3)Gal(b1-3)GlcNAc = biological target: Kdn(a2-3)Gal(b1-3)GlcNAc
# Method in brief: as §1
# Kdn(a2-3)Gal(b1-4)Glc = biological target: Kdn(a2-3)Gal(b1-4)Glc
# Method in brief: as §1
# Kdn(a2-3)Gal(b1-4)GlcNAc = biological target: Kdn(a2-3)Gal(b1-4)GlcNAc
# Method in brief: as §1
# [5] = biological target: Kdn(a2-3)Gal(b1-4)[Fuc(a1-3)]GlcNAc
# Method in brief: as §1
# Kdn(a2-6)Gal(b1-4)GlcNAc = biological target: Kdn(a2-6)Gal(b1-4)GlcNAc
# Method in brief: as §1
# [6] = biological target: Man(a1-2)Man(a1-2)Man(a1-3)Man
# Method in brief: as §1
# [7] = biological target: Man(a1-2)Man(a1-2)Man(a1-6)[Man(a1-3)]Man
# Method in brief: as §1
# Man(a1-2)Man(a1-3)Man = biological target: Man(a1-2)Man(a1-3)Man
# Method in brief: as §1
# [8] = biological target: Man(a1-2)Man(a1-3)[Man(a1-2)Man(a1-6)]Man
# Method in brief: as §1
# [9] = biological target: Man(a1-2)Man(a1-3)[Man(a1-2)Man(a1-6)]Man(a1-6)[Man(a1-2)Man(a1-2)Man(a1-3)]Man
# Method in brief: as §1
# [10] = biological target: Man(a1-2)Man(a1-3)[Man(a1-2)Man(a1-6)]Man(a1-6)[Man(a1-2)Man(a1-2)Man(a1-3)]Man(b1-4)GlcNAc(b1-4)GlcNAc
# Method in brief: as §1
# [11] = biological target: Man(a1-2)Man(a1-3)[Man(a1-6)]Man(a1-6)[Man(a1-2)Man(a1-3)]Man(b1-4)GlcNAc(b1-4)GlcNAc
# Method in brief: as §1
# [12] = biological target: Man(a1-2)Man(a1-6)[Man(a1-3)]Man(a1-6)[Man(a1-2)Man(a1-2)Man(a1-3)]Man
# Method in brief: as §1
# [13] = biological target: Man(a1-2)Man(a1-6)[Man(a1-3)]Man(a1-6)[Man(a1-2)Man(a1-2)Man(a1-3)]Man(b1-4)GlcNAc(b1-4)GlcNAc
# Method in brief: as §1
# Man(a1-3)[Man(a1-6)]Man = biological target: Man(a1-3)[Man(a1-6)]Man
# Method in brief: as §1
# [14] = biological target: Man(a1-3)[Man(a1-6)]Man(a1-6)[Man(a1-2)Man(a1-3)]Man(b1-4)GlcNAc(b1-4)GlcNAc
# Method in brief: as §1
# [15] = biological target: Man(a1-3)[Man(a1-6)]Man(a1-6)[Man(a1-3)]Man
# Method in brief: as §1
# [16] = biological target: Man(a1-3)[Man(a1-6)]Man(a1-6)[Man(a1-3)]Man(b1-4)GlcNAc(b1-4)GlcNAc
# Method in brief: as §1
# [17] = biological target: Man(a1-3)[Man(a1-6)]Man(b1-4)GlcNAc(b1-4)GlcNAc
# Method in brief: as §1
# [18] = biological target: Man(a1-3)[Man(a1-6)]Man(b1-4)GlcNAc(b1-4)[Fuc(a1-6)]GlcNAc
# Method in brief: as §1
# Man(a1-6)Man = biological target: Man(a1-6)Man
# Method in brief: as §1
# Man(b1-4)GlcNAc = biological target: Man(b1-4)GlcNAc
# Method in brief: as §1
# MurNAc(b1-4)GlcNAc = biological target: MurNAc(b1-4)GlcNAc
# Method in brief: as §1
# Neu5Ac(a2-3)Gal = biological target: Neu5Ac(a2-3)Gal
# Method in brief: as §1
# [19] = biological target: Neu5Ac(a2-3)Gal(b1-3)GalNAc
# Method in brief: as §1
# [20] = biological target: Neu5Ac(a2-3)Gal(b1-3)GalNAc(b1-3)Gal(a1-4)Gal(b1-4)Glc
# Method in brief: as §1
# [21] = biological target: Neu5Ac(a2-3)Gal(b1-3)GalNAc(b1-4)[Neu5Ac(a2-3)]Gal(b1-4)Glc
# Method in brief: as §1
# [22] = biological target: Neu5Ac(a2-3)Gal(b1-3)GalNAc(b1-4)[Neu5Ac(a2-8)Neu5Ac(a2-3)]Gal(b1-4)Glc
# Method in brief: as §1
# [23] = biological target: Neu5Ac(a2-3)Gal(b1-3)GalNAc6S
# Method in brief: as §1
# [24] = biological target: Neu5Ac(a2-3)Gal(b1-3)GlcNAc
# Method in brief: as §1
# [25] = biological target: Neu5Ac(a2-3)Gal(b1-3)GlcNAc(b1-2)Man
# Method in brief: as §1
binder,measurement,setting,value
B1,glycan array binding signal (z-score),[1],-0.063
same,glycan array binding signal (z-score),[2],-0.5
same,glycan array binding signal (z-score),[3],0.812
same,glycan array binding signal (z-score),GlcNAc(b1-6)GalNAc,0.917
same,glycan array binding signal (z-score),[4],0.219
same,glycan array binding signal (z-score),Kdn(a2-3)Gal(b1-3)GalNAc,0.749
same,glycan array binding signal (z-score),Kdn(a2-3)Gal(b1-3)GlcNAc,-0.543
same,glycan array binding signal (z-score),Kdn(a2-3)Gal(b1-4)Glc,0.642
same,glycan array binding signal (z-score),Kdn(a2-3)Gal(b1-4)GlcNAc,-0.2
same,glycan array binding signal (z-score),[5],0.401
same,glycan array binding signal (z-score),Kdn(a2-6)Gal(b1-4)GlcNAc,0.363
same,glycan array binding signal (z-score),[6],-0.568
same,glycan array binding signal (z-score),[7],0.54
same,glycan array binding signal (z-score),Man(a1-2)Man(a1-3)Man,-0.436
same,glycan array binding signal (z-score),[8],-0.666
same,glycan array binding signal (z-score),[9],-0.585
same,glycan array binding signal (z-score),[10],0.027
same,glycan array binding signal (z-score),[11],-0.558
same,glycan array binding signal (z-score),[12],-0.603
same,glycan array binding signal (z-score),[13],0.366
same,glycan array binding signal (z-score),Man(a1-3)[Man(a1-6)]Man,0.888
same,glycan array binding signal (z-score),[14],1.08
same,glycan array binding signal (z-score),[15],2.14
same,glycan array binding signal (z-score),[16],0.242
same,glycan array binding signal (z-score),[17],-0.393
same,glycan array binding signal (z-score),[18],-0.591
same,glycan array binding signal (z-score),Man(a1-6)Man,3.24
same,glycan array binding signal (z-score),Man(b1-4)GlcNAc,1.13
same,glycan array binding signal (z-score),MurNAc(b1-4)GlcNAc,0.25
same,glycan array binding signal (z-score),Neu5Ac(a2-3)Gal,-0.123
same,glycan array binding signal (z-score),[19],-0.474
same,glycan array binding signal (z-score),[20],-0.298
same,glycan array binding signal (z-score),[21],0.175
same,glycan array binding signal (z-score),[22],-0.389
same,glycan array binding signal (z-score),[23],-0.288
same,glycan array binding signal (z-score),[24],-0.231
same,glycan array binding signal (z-score),[25],1.14
